From the RNAGym collection of RNA variant scans (doi:10.7554/elife.90254)
Read counts are not given, so values of variants with three or more changes are uncertain.

B1: LINE1-full (parent)
chain: UACGUAGGUGGUUUUCCCCUGAUAGUGCUAAGGGGGCCUGGAAGUUUGGACUGGGCAGAGCUCAACACAGCGUGGCAAAGUGGCUGUGGCUAGACUGCCUCUCUGGAUUCCUCGUCACUCAGCAGGGCAUCUCUGAGAGAAAUGCC

Variants of: B1
Assay: self-cleavage, relative activity (ratio to wild type); higher = more cleavage; in vitro, sequencing; the parent is a self-cleaving ribozyme

Variant	self-cleavage
U20A A65G A67G A140U	0.1
U14A U52A G89C A94G C128G	0.06
U46C U47C A77G C145A	2.53
C19U G106U A129U	1.21
U46C U91C A140G	1.33
G11C A65G U96A A140G	0.08
U26C A42U A43G	0
G11U G72U U115A	1.29
U15C U52C U115C	1.69
U39C A43G G48A U109C A140G	0.74
G34A U39C A59U C76U	1.31
A42G A78G U96A	0.03
U96C U115A A117U	0.09
G34A A57G A141G	1.22
U12C U15A A30G A78G A117G A138U	2.3
U5C U130C A136U	1.28
U73C A117U A140G	1.46
A94G U132C A142C	0.47
A43G A78G U112C	1.87
A24U U47G U52A U62C G72U U85C	0.14
U29C U47C U62C G114A	0.1

Variant	self-cleavage
A65G U85C U100C	0.31
U109A A142G C146U	1.53
U45C U62C G86A	0.08
U91A U104A A142G	0.56
A79U U112C U130C	2.7
U87C U119A A121G A140G	0
U39C A50G A129U A136G	1.44
U46C A129U U130C	1.34
C68A U73C A92G U109C U112A A138G	0
A79G A94U U115A	0.46
A57G U85A U96G A121U A124G	0.19
U39A A42G A107U	1.28
U9A U39C U119C	1.53
C3U A31G A65G	0.56
U12G A77G U85A	0.3
G8A U13C G55C A69G A77G U130C	0
U13A A69C A92C	0
A43G A67G C90U	0
U52A A92U A129C	0.46
U12C A42G U112C	1.31
U26C A30G A59G	0.32

Variant	self-cleavage
U45C U47A G88A	0.03
U13C A64G A65G	0.18
A22G U39A C90U	0.04
G7A U9G A107U	0.88
U5C U15A G54C A64G	0.65
A31G A65U A141G	0.61
A24C A69U U100A U104A A142G U143A	0
U14A G27A A65G	0.02
A24G U112A C116U	1.36
U52C G74A U132C	1.47
U26C A69U G89A	0.08
U9C A67G A141G	0.76
U13C U46C U112C	1.72
U62A A121G A138G	0
U5C U52A A121G	1.65
U45C A59G A77U	0.04
C3U C61A A124G	0.09
U15C U91C U134G A141G	1.12
U9C U39C A69G A138G	0
U12C A77U U104A U143C	1.01
U15C U47A A50U C113U	0.77

Variant	self-cleavage
A43G G127A A140G	1
A24C U87G U100C C111U	0
A69U A79G U91C	0
U46C A121U U132A	1.65
U13C U20C A94U A136G	0.31
U39A A124G G125A	0.48
U5C U13C A142G	1.21
U23C U39C C51U U143C	1.16
A31C U102C U134C	2
A2G C19U A92G U130C U143C C145U	0.19
A22U U52C U100A	0.4
U5C A57G U87A	0.14
U14C A59G A77U G126U	0.17
U13A A79G A141G	0.93
U45C A129G G139U C145U	2.51
C71U U73C A79G A94U U130C	0.53
U20A A94G U130C	0.59
A50G U96C U112A	0
U9A A67G C128U	0.39
A50G U62C U112C U132C A136G	0
U14C G72A A78G U112C U143C	1.04
